The IC50 comes from the fitted curve, where viability falls to half of the control; a fit beyond the top or the lowest dose is shown as a bound at that dose. For AUC the same curve is integrated over the 256-fold range of doses and scaled to a fraction: 1 means no effect, lower means more sensitive. Any top dose called inferred comes from the curve model; the source does not state it. Some results are limits rather than exact numbers.

Compound in the first experiment: C=CC(=O)Nc1ccc(C(=O)c2sc(Nc3ccc(N4CCN(C)CC4)cc3OC)nc2N)cc1 [XMD15-27]
In words: Viability of human cancer cell lines after 72 h of drug (GDSC screen). As to conditions: top dose 10.24 µM; top dose inferred. As for the experimental part: (§1)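 Human cancer cell lines in 384-well plates, medium with 10% serum, drug for 72 h over a 256-fold dose range (nine 2-fold or five 4-fold steps up to the top dose). Adherent lines were fixed and stained with the nucleic acid dye Syto60, suspension lines read with resazurin; signal relative to control wells, capped at 0 and 100%. One two-parameter sigmoid per drug and line, fitted in a mixed model over all curves with the slope shared within a line.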
On to UACC-812 (breast, adherent), for which the AUC came out at 0.991 and the IC50 (usually the concentration that inhibits the measured activity by half) was above 10.2 µM.

Consider YMB-1-E (breast, adherent), for which the AUC worked out at 0.977 and the 50% inhibitory concentration (IC50) is above 10.2 µM.

Compound in another experiment: O=C1NC(=O)/C(=C\c2ccc3nccnc3c2)S1 [AS605240]
The experiment is described as above. As to conditions: top dose inferred. As to the method: as §1
“8-MG-BA (glioma, adherent, top dose 20 µM)”: the AUC was found to be 0.866 and the IC50 is 15.9 µM.

Turning to “22RV1 (prostate, adherent, top dose 20 µM)”, the AUC amounted to 0.837 and the IC50 amounted to 18.3 µM.

Turning to “42-MG-BA (glioma, adherent, top dose 20 µM)”, the AUC was 0.95 and the IC50 was above 20 µM.

For the cell line “201T (lung adenocarcinoma, adherent, top dose 20 µM)”, the AUC was determined as 0.918 and the IC50 is above 20 µM.

In the case of “451Lu (melanoma, adherent, top dose 20 µM)”, the AUC amounted to 0.481 and the concentration for half-maximal inhibition (IC50) was 1.12 µM.

Turning to “639-V (bladder, adherent, top dose 20 µM)”, the AUC stood at 0.964 and the IC50 is above 20 µM.

Consider “647-V (bladder, adherent, top dose 20 µM)”, for which the AUC is 0.855 and the IC50 turned out to be 16.1 µM.

“697 (lymphoblastic leukaemia, suspension, top dose 20 µM)”: the AUC is 0.415 and the IC50 amounted to 0.77 µM.

Regarding “769-P (kidney, adherent, top dose 20 µM)”, the AUC was 0.581 and the IC50 was determined as 2.12 µM.

Consider “786-0 (kidney, adherent, top dose 20 µM)”, for which the AUC came out at 0.752 and the half-maximal inhibitory concentration (IC50) was 6.17 µM.

Regarding “5637 (bladder, adherent, top dose 20 µM)”, the AUC came out at 0.732 and the half-inhibitory concentration (IC50) worked out at 5.29 µM.

In the case of “8305C (thyroid, adherent, top dose 20 µM)”, the AUC stood at 0.962 and the half-inhibitory concentration (IC50) was above 20 µM.

Regarding “8505C (thyroid, adherent, top dose 20 µM)”, the AUC was 0.825 and the IC50 was 13 µM.

For “23132-87 (stomach, adherent, top dose 20 µM)”, the AUC amounted to 0.868 and the half-inhibitory concentration (IC50) was determined as 19.4 µM.

As to “A3-KAW (B-cell lymphoma, suspension, top dose 20 µM)”, the AUC amounted to 0.615 and the concentration for half-maximal inhibition (IC50) worked out at 2.41 µM.

As for “A4-Fuk (B-cell lymphoma, suspension, top dose 20 µM)”, the AUC was 0.878 and the half-inhibitory concentration (IC50) is above 20 µM.

For the cell line “A101D (melanoma, adherent, top dose 20 µM)”, the AUC worked out at 0.928 and the 50% inhibitory concentration (IC50) is above 20 µM.

Consider A172 (glioma, adherent, top dose 20 µM), for which the AUC amounted to 0.9 and the 50% inhibitory concentration (IC50) is above 20 µM.

For “A204 (rhabdomyosarcoma, adherent, top dose 20 µM)”, the AUC is 0.839 and the IC50 came to 19.9 µM.

In the case of “A253 (head and neck, adherent, top dose 20 µM)”, the AUC came to 0.977 and the IC50 was above 20 µM.

On to A388 (skin, adherent, top dose 20 µM), for which the AUC worked out at 0.803 and the IC50 was determined as 11.7 µM.

For “A427 (non-small cell lung carcinoma, adherent, top dose 20 µM)”, the AUC is 0.878 and the half-inhibitory concentration (IC50) is above 20 µM.

A431 (skin, adherent, top dose 20 µM): the AUC was 0.765 and the IC50 was found to be 7.02 µM.

In the case of A498 (kidney, adherent, top dose 20 µM), the AUC worked out at 0.936 and the half-maximal inhibitory concentration (IC50) is above 20 µM.

“A673 (rhabdomyosarcoma, adherent, top dose 20 µM)”: the AUC amounted to 0.859 and the IC50 was 14 µM.

Turning to A704 (kidney, adherent, top dose 20 µM), the AUC is 0.971 and the concentration for half-maximal inhibition (IC50) was above 20 µM.

On to “A2058 (melanoma, adherent, top dose 20 µM)”, for which the AUC was found to be 0.905 and the half-maximal inhibitory concentration (IC50) is above 20 µM.

Take “A2780 (ovary, semi-adherent, top dose 20 µM)”: the AUC was 0.506 and the IC50 turned out to be 1.3 µM.

With “ABC-1 (lung adenocarcinoma, adherent, top dose 20 µM)”, the AUC worked out at 0.717 and the IC50 was 5.91 µM.

For ACHN (kidney, adherent, top dose 20 µM), the AUC is 0.869 and the half-maximal inhibitory concentration (IC50) was above 20 µM.

For the cell line AGS (stomach, adherent, top dose 20 µM), the AUC came to 0.613 and the IC50 was 2.47 µM.

Consider “ALL-PO (lymphoblastic leukaemia, suspension, top dose 20 µM)”, for which the AUC is 0.41 and the half-maximal inhibitory concentration (IC50) turned out to be 0.696 µM.

On to “ALL-SIL (T-cell leukaemia, suspension, top dose 20 µM)”, for which the AUC came out at 0.634 and the IC50 was determined as 2.76 µM.

Take “AM-38 (glioma, semi-adherent, top dose 20 µM)”: the AUC was found to be 0.74 and the IC50 is 6.16 µM.

As to “AMO-1 (haematopoietic neoplasm, suspension, top dose 20 µM)”, the AUC was 0.865 and the 50% inhibitory concentration (IC50) is 13.6 µM.

With “AN3-CA (endometrium, adherent, top dose 20 µM)”, the AUC is 0.932 and the half-maximal inhibitory concentration (IC50) was above 20 µM.

Consider “ARH-77 (myeloma, suspension, top dose 20 µM)”, for which the AUC was 0.766 and the IC50 was found to be 7.14 µM.

On to “ASH-3 (thyroid, adherent, top dose 20 µM)”, for which the AUC was found to be 0.988 and the IC50 was above 20 µM.

Turning to “ATN-1 (T-cell lymphoblastic leukaemia, suspension, top dose 20 µM)”, the AUC is 0.728 and the IC50 amounted to 5.28 µM.

On to “AU565 (breast, adherent, top dose 20 µM)”, for which the AUC was determined as 0.885 and the 50% inhibitory concentration (IC50) was above 20 µM.

In the case of “AsPC-1 (pancreas, adherent, top dose 20 µM)”, the AUC came to 0.8 and the IC50 was found to be 19.5 µM.

Regarding “BB30-HNC (head and neck, adherent, top dose 20 µM)”, the AUC came to 0.607 and the IC50 worked out at 2.45 µM.

Turning to “BB49-HNC (head and neck, adherent, top dose 20 µM)”, the AUC worked out at 0.974 and the half-inhibitory concentration (IC50) is above 20 µM.

“BB65-RCC (kidney, adherent, top dose 20 µM)”: the AUC came to 0.969 and the concentration for half-maximal inhibition (IC50) was above 20 µM.

Regarding “BC-1 (B-cell lymphoma, suspension, top dose 20 µM)”, the AUC was 0.738 and the IC50 amounted to 5.26 µM.

As for “BC-3 (B-cell lymphoma, suspension, top dose 20 µM)”, the AUC came out at 0.937 and the IC50 is above 20 µM.

Regarding “BCPAP (thyroid, adherent, top dose 20 µM)”, the AUC turned out to be 0.973 and the concentration for half-maximal inhibition (IC50) is above 20 µM.

As to “BE2-M17 (neuroblastoma, adherent, top dose 20 µM)”, the AUC worked out at 0.888 and the half-maximal inhibitory concentration (IC50) is above 20 µM.

As for “BE-13 (lymphoblastic leukaemia, suspension, top dose 20 µM)”, the AUC was determined as 0.869 and the IC50 is 16.4 µM.

For the cell line “BEN (non-small cell lung carcinoma, adherent, top dose 20 µM)”, the AUC came out at 0.94 and the IC50 was above 20 µM.

On to “BFTC-905 (bladder, adherent, top dose 20 µM)”, for which the AUC was 0.765 and the IC50 stood at 6.38 µM.

On to “BFTC-909 (kidney, adherent, top dose 20 µM)”, for which the AUC was 0.973 and the IC50 is above 20 µM.

In the case of “BHT-101 (thyroid, adherent, top dose 20 µM)”, the AUC turned out to be 0.826 and the IC50 came to 12.7 µM.

On to “BHY (head and neck, adherent, top dose 20 µM)”, for which the AUC is 0.716 and the IC50 is 5.1 µM.

Consider “BICR10 (head and neck, adherent, top dose 20 µM)”, for which the AUC was determined as 0.935 and the 50% inhibitory concentration (IC50) is above 20 µM.

As for “BICR22 (head and neck, adherent, top dose 20 µM)”, the AUC came out at 0.461 and the half-maximal inhibitory concentration (IC50) was determined as 0.961 µM.

As for “BICR31 (head and neck, adherent, top dose 20 µM)”, the AUC was 0.86 and the 50% inhibitory concentration (IC50) was determined as 17.1 µM.

As to “BICR78 (head and neck, adherent, top dose 20 µM)”, the AUC came to 0.902 and the 50% inhibitory concentration (IC50) is above 20 µM.

Consider “BL-41 (Burkitt lymphoma, suspension, top dose 20 µM)”, for which the AUC turned out to be 0.868 and the concentration for half-maximal inhibition (IC50) was determined as 11.4 µM.

“BPH-1 (prostate, adherent, top dose 20 µM)”: the AUC was found to be 0.859 and the concentration for half-maximal inhibition (IC50) was found to be 19.6 µM.

Turning to “BT-20 (breast, adherent, top dose 20 µM)”, the AUC amounted to 0.813 and the concentration for half-maximal inhibition (IC50) worked out at 14.2 µM.

“BT-474 (breast, adherent, top dose 20 µM)”: the AUC was 0.83 and the IC50 worked out at 14.6 µM.

Consider “BT-483 (breast, adherent, top dose 20 µM)”, for which the AUC was found to be 0.849 and the IC50 is above 20 µM.

For “BV-173 (chronic myeloid leukaemia, suspension, top dose 20 µM)”, the AUC is 0.81 and the concentration for half-maximal inhibition (IC50) came to 9.01 µM.

With “Becker (glioma, adherent, top dose 20 µM)”, the AUC was determined as 0.939 and the IC50 was above 20 µM.

For the cell line “BxPC-3 (pancreas, adherent, top dose 20 µM)”, the AUC was determined as 0.915 and the IC50 was above 20 µM.
